Laboratory results reported in the RNAGym collection of RNA variant scans (doi:10.7554/elife.90254).
The source gives no read counts; variants with many changes may rest on few reads.

B1: OR4K15 (parent)
chain: GUUAACGGUCAUAGGCCAUGGAAACUAGGAGCACCAUUUCGCUGCCAGUGAAGAAAUGAACAAAGAAAAUCUGGGCCAGGCAGGCAUCAAAAGAAAUAGUCUUGCGCUCAACCAGAAAGUCUGUAAUCAUUUUAAGGGUA

Variants of: B1
Assay: self-cleavage, relative activity (ratio to wild type); higher = more cleavage; in vitro, sequencing; the parent is a self-cleaving ribozyme

| Variant | self-cleavage |
| --- | --- |
| U12C A110G A118G U133C | 0.22 |
| A11U C61U G74U U103C A111U | 0.03 |
| A13G A52G A114U | 0.2 |
| A13U A27G A118G | 1.76 |
| U12C A24G A52C A59U U108C U127C | 0 |
| U12C A68G A140G | 1.62 |
| U12C U102C G123A | 1.18 |
| A13G U19C U39C A62U U108C | 0.06 |
| A13G U43A A63G G65A A90G | 1.15 |
| A13G U87C A95G A111G A125G | 0 |
| A13G A24U A67G A98C | 1.56 |
| U12C A30G U131C A140G | 1.27 |
| U12C A91G A114U A118U | 0.03 |
| A11U U87C A96U | 1.78 |
| A13U A36C A59G A118U | 0.45 |
| U12G A30G U39C A51G U102A U103C A126G | 0.07 |
| A13G A82G U132C | 0.47 |
| U12C U37C A86G A90G U124C U130G | 0.51 |
| U12C U19C A24G A116G | 0.72 |
| G14A A60G A117G | 1.39 |
| A11U A89G A92U | 0.84 |
| A13U U57A A126G U127C U132C | 0.7 |
| A13G A82G U87A | 0.58 |
| A13G U37C C88U | 1.45 |

| Variant | self-cleavage |
| --- | --- |
| A13G A33G U97C G104A G119C | 0.02 |
| A13G A60C A69U C81U | 0.41 |
| A11U G44A A51G | 0.91 |
| A13U A56G A116G U122C U124A A125G | 0.22 |
| U12G A30G U49C A90G U108C | 0.05 |
| A13G A68G A82U | 0.3 |
| A13G A78G A126C | 0.13 |
| A13U A18U A27G A66U | 1.08 |
| A13G U39C A66G A89U U122G | 1.22 |
| U12A A22G U70C A94G | 0.3 |
| U12C A86G G104A A135U | 0.04 |
| A13G A96C A117G | 1.88 |
| U12A A78U A82G U122C A134U | 0.32 |
| A13G U49C U57C A59U | 0.6 |
| U12C A30G A118G | 0.44 |
| A13U U39C A69G U127C A129U | 1.23 |
| U12C U43C A51U | 1.39 |
| G14U A51G A64G | 0.99 |
| U12C A18G U49C A59U A86G A114G | 0.15 |
| A13U A51G A78U | 0.16 |
| U12C A24G U103A | 0.15 |
| A13G U37C U131C | 1.45 |
| A13G A22G A68G U87C | 0.64 |
| A13G G50A A51G A54G | 0.75 |

| Variant | self-cleavage |
| --- | --- |
| A13G A27G U97A | 0.23 |
| U12C A18U G80A A117G | 0.16 |
| U12G A22G U26A U72C | 0.38 |
| A11U U38C A51G A55G U130C | 0.46 |
| U12A U70C U127C U131C | 0.64 |
| A13G A22U G28U A30G A52G | 1.09 |
| A11U A78C U108C U120A | 0 |
| G14A A52U A111G | 0.02 |
| U12C A51G A59G A126G | 0.73 |
| A13U A23G U103C | 1.24 |
| U12A A52G A56G A69G | 0.19 |
| G14A A86U A114U U130C | 0.01 |
| A13G G29U U120C | 1.49 |
| U12A A13G A126C | 0.68 |
| U12A A94G A114G A118G | 1.09 |
| A13G U43C A67G U87C | 1.12 |
| A13U U43A A52C A54G U102C A111G A114U | 0.02 |
| A13U A64U A126G | 0.74 |
| A13U A23G U108A A118G | 0 |
| A13U A24G A54G | 0.71 |
| U12G A56G U103A | 1.16 |
| U12C A51C A52G | 0.67 |
| A13U U102C U139A | 2.35 |
| G14A U39C A47U | 0.78 |

| Variant | self-cleavage |
| --- | --- |
| A13U A86G U97A | 0.69 |
| A13U A98G U130C | 0.31 |
| U12C A13G G48A A51G | 1.7 |
| A13G A23G U49C | 1.03 |
| U12C A30G A68G | 1.02 |
| U12C U19G A90G A91G A114G U130C | 0.17 |
| A13G A23G U37C | 0.66 |
| A13G A51C A89G | 0.73 |
| A13U C17U U19C A22G A54G | 1.8 |
| U12C A27U U57C | 1.13 |
| A13G U72C A82U U102C U130C | 0.7 |
| U12C A56G A96G | 1.72 |
| A13U A92G C105U A116U U127C | 0.06 |
| U12C U37A U57C | 1.37 |
| U12C A52C A110U A111G U132C | 0.02 |
| A13G U38C U43C A89G U122C | 0.74 |
| A13G A82U A114U U132C | 0.11 |
| A13U A63U A68C | 0.89 |
| A13G U39C U57C A89G A117G | 0.65 |
| U12C U38C A90G | 1.12 |
| A13G U39A U72C A96G | 0.57 |
| U12C C17U G20U A52G A92G | 1.12 |
| U12A A68U A78G A91G | 0.12 |
| U12A C46U A91G | 0.37 |

| Variant | self-cleavage |
| --- | --- |
| A13G A36G A111G | 0.05 |
| U12C A68C U72G U100A U122C | 0.09 |
| A13G A59G U102C A118G | 1.78 |
| U12C G106A U132A | 0.01 |
| U12C A22U A68G A89G A98U | 1.56 |
| U12A A60G A69G U97C A116G | 0.55 |
| A13U A24G A82G A94G | 0.81 |
| A13G U37C G50U | 0.75 |
| A13G A51G A86U | 1.36 |
| U12G A52G A59G | 1.05 |
| A13G A30G A54U A56G | 0.67 |
| A13U A56G A114G A118G | 0.15 |
| G14A U19G A54G A60G | 0.84 |
| G14C C16U U26C A90U A118G U122A | 0.83 |
| A13G A91G C121U | 1.73 |
| A13G A47U U130C | 0.21 |
| A13G A22G A24G A64G G106A A111G | 0.04 |
| A13G A33U A68U A94G U100C | 1.14 |
| U12C U120A A134G | 1.04 |
| A13G U43C A52G A90G A135G | 1.82 |
| A13G A23G A89C | 0.45 |
| A13G U43G A52U A66G A114G | 1.39 |
| U12C A111U A125G | 0.03 |
| U12C A52G A116G | 0.39 |

| Variant | self-cleavage |
| --- | --- |
| A13G A54G A94G | 1.28 |
| U12C A94U U124C | 0.29 |
| U12C G50A A52G A54U A62U | 0.81 |
| U12C G48A A59C | 1.38 |
| A13G A82G U122C | 0.37 |
| A13G U97C A116G | 0.2 |
| U12C A24G U37C U38C A89G C113U | 0.11 |
| A11U A67G A90G | 1.3 |
| U12C U19C A47G | 1.16 |
| A13U A18G U19C A23G A66G A118G | 0.27 |
| U12C A33G A56G A64G | 0.72 |
| A13U A22G U26C G29A U37C A78G U97G | 0.39 |
| U12A A56G A63G | 1.14 |
| U12C A24U A91G | 0.49 |
| A13U A110U A117U | 1.62 |
| G14U A51U A63G A126G | 0.28 |
| U12A A62G A114G | 0.52 |
| U12A A62U A67G | 1.35 |
| A13U U43C A110U U120A U132C | 0.62 |
| U12C A62G A67G A95G | 1.34 |
| A13G A62G U70C A140G | 0.7 |
| G14C G83A U139C | 1.72 |
| U12C A66G U87C A96G | 1.41 |
| G14A A36U A56G | 0 |

| Variant | self-cleavage |
| --- | --- |
| U12C A36G A95G | 1.42 |
| A13G A36G A82U | 0.15 |
| G14A U39A U102C A140U | 1.23 |
| A13G U57C A89G A90G A116U U131G | 0 |
| A13G U26C A62G A96G | 1.18 |
| U12C A36G U49C A67G | 0.71 |
| A11U U39A U103C | 1.39 |
| U12C U49C A90G U133A | 0.29 |
| A11U U37C A69G | 0.58 |
| U12C A60G U127C | 0.51 |
| U12C U43C A54G | 1.58 |
| U12C U19C A33G A126G | 0.37 |
| A13G A63G A68G A111G | 0.11 |
| U12C A67U U72C | 0.76 |
| U12A A60G A67G | 0.48 |
| U12G A23G G29U U49C A59U A135U | 0.84 |
| U12C U37C A60G U100A A114G A134G | 0.03 |
| A13G U108C A114U | 0.03 |
| A11U C40A A78G U127A | 0.17 |
| A13C A98U U132C | 0.83 |
| A13U A18G A117G U132C | 1.53 |
| A13G A78G A82C G83A | 0.4 |
| A11U A94U A126G | 0.8 |
